Reference: patent US20260132200A1 (Regeneron, published 2026)

Biological target: T1, human CD3 expressed on cells (Jurkat, a CD3+ human T-cell line; human T cells) (human, UniProt P07766 23-126; P04234 22-100)
T1 chain 1: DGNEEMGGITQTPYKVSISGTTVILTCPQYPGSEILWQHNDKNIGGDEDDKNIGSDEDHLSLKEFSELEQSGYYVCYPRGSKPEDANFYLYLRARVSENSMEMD
T1 chain 2: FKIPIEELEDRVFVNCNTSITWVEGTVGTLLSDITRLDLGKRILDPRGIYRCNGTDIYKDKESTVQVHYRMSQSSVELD
Test: cell-based or functional assay

B1: H1H7269P (monovalent 1-arm) (other)
VH: QVQLVESGGGLVQPGRSLRLSCAASGFKFDDYTMHWVRQGPGKGLEWVSDISWSGGSIDYTDSVKGRFSISRDNAKNSLYLQMNSLRVEDTALYYCVKDKSGYGKYSYGLDVWGQGTTVTVSS
VL: [letters of about 100 residues not shown]
U937 Cytotoxicity Human T-cells [M] (EC50): 1.08e-11 M

B2: H1H7194P (monovalent 1-arm) (other)
VH: EVQLVESGGGLVQPGRSLRLSCAASGFTFGDYTMHWVRQAPGKGLEWVSDISWNSGSKDYADSVKGRFTISRDNAKNSLYLQMNSLRTEDTAFYYCAKDSRGYGLYYHLGLDVWGQGTTVTVSS
VL: [letters of about 100 residues not shown]
U937 Cytotoxicity Human T-cells [M] (EC50): 4.71e-12 M

B3: H1H7195P (monovalent 1-arm) (other)
VH: EVQLVESGGGLVQPGRSLRLSCAASGFTFADYTMHWVRQAPGKGLEWVSDISWNSGSIAYADSVKGRFTISRDNAKNSLYLQMNSLRTEDTAFYYCAKDSRGYGHYKYLGLDVWGQGTTVTVSS
VL: [letters of about 100 residues not shown]
U937 Cytotoxicity Human T-cells [M] (EC50): 6.1e-12 M

B4: H1H7196P (monovalent 1-arm) (other)
VH: EVQLVESGGGMVQPGRSLRLSCAASGFPFNDYTMHWVRQVPGRGLEWVSDISWNSGSKGYADSVKGRFIISRDNAKNSLYLQMNSLRVEDTALYYCVKDGSGYGRFHYYAMDVWGQGTTVTVSS
VL: [letters of about 100 residues not shown]
U937 Cytotoxicity Human T-cells [M] (EC50): 1.96e-11 M

B5: H1H7198P (monovalent 1-arm) (other)
VH: EVQLVESGGGLVQPGRSLRLSCAASGFTFADYTMHWVRQVPGKGLEWVSDISWNSGSKDYADSVKGRFTISRDNAKNFLYLQMNSLRAEDTALYYCVKYGSGYGKFYFYAMDVWGQGTTVTVSS
VL: [letters of about 100 residues not shown]
U937 Cytotoxicity Human T-cells [M] (EC50): 5.21e-12 M

B6: H1H7221P (monovalent 1-arm) (other)
VH: EVQLVESGGGLVQPGRSLRLSCVASGFTFDDYSMHWVRQAPGKGLEWVSGISWNSGSKDYADSVKGRFTISRDNAKNSLYLQMNSLRAEDTALYYCAKYGSGYGKFYHYGLDVWGQGTTVTVSS
VL: [letters of about 100 residues not shown]
U937 Cytotoxicity Human T-cells [M] (EC50): 9.21e-12 M

B7: H1H7232P (monovalent 1-arm) (other)
VH: EVQLVESGGGLVHPGRSLRLSCAASGFTFDDYTMHWVRQAPGKGLEWVSDISWNSGSRGYADSVKGRFTISRDNAENSLYLQMNSLRAEDTALYYCAKDKSGYGHYYYYAMDVWGQGTTVTVSS
VL: [letters of about 100 residues not shown]
U937 Cytotoxicity Human T-cells [M] (EC50): 9.96e-12 M

B8: H1H7223P (monovalent 1-arm) (other)
VH: QVQLVESGGGLVQPGRSLRLSCAASGFTFADYTMHWVRQAPGKGLEWVSDISWNSGSMGYADSVKGRFTISRDNAKKSLYLQMNSLRTEDTALYYCAKDGSGYGKYFFYAMDVWGQGTTVTVSS
VL: [letters of about 100 residues not shown]
U937 Cytotoxicity Human T-cells [M] (EC50): 5.3e-12 M

B9: H1H7203P (monovalent 1-arm) (other)
VH: EVQLVQSGGGLVQPGRSLRLSCAASGFTFADYTMHWVRQTPGKGLEWVSGISWNSGSKDYADSVKGRFTISRDNAKNSLYLQMNSLRTEDTALYYCAKYGSGYGRYFFYAMDVWGQGTTVTVSS
VL: [letters of about 100 residues not shown]
U937 Cytotoxicity Human T-cells [M] (EC50): 5.47e-12 M

B10: H1H7211P (monovalent 1-arm) (other)
VH: EVQLVESGGGLVHPGRSLRLSCTASGFKFADYTMHWVRQAPGKGLEWVSDISWNSGSKGYADSVKGRFTISRDNDKNSLYLQMNSLRGEDTALYYCAKDGSGYGRFHFYAIDVWGQGTTVTVSS
VL: [letters of about 100 residues not shown]
U937 Cytotoxicity Human T-cells [M] (EC50): 7.89e-12 M

B11: H1H7226P (monovalent 1-arm) (other)
VH: EVQLVQSGGGLVQPGRSLRLSCAASGFTFSDYTMHWVRQGPGKGLEWVSDISWNSGSKGYTDSVKGRFTISRDNAKKSLYLQMNSLRAEDTALYYCVKDGSGYGKYHFYAMDVWGQGTLVTVSS
VL: [letters of about 100 residues not shown]
U937 Cytotoxicity Human T-cells [M] (EC50): 1.04e-11 M

B12: H1H7233P (monovalent 1-arm) (other)
VH: EVQLVESGGGLVQPGGSLRLSCEASGFTFADYTLHWVRQAPGKGLEWVSDISWNSGTRGYADSVRGRFTISRDNAKKSLYLQMNSLRSEDTALYYCVKDGSGYGRYNFYAMDVWGQGTTVTVSS
VL: [letters of about 100 residues not shown]
U937 Cytotoxicity Human T-cells [M] (EC50): 1.19e-11 M

B13: H1H7204P (monovalent 1-arm) (other)
VH: EVQLVESRGALVQPGRSLRLSCAASGFAFNDYTMHWVRQAPGKGLEWVSDISWNSNSKDYADSVKGRFTISRDNAKNSLYLQMNSLRAEDTALYYCVKDGSGYGKFSLYALDVWGQGTTVTVSS
VL: [letters of about 100 residues not shown]
U937 Cytotoxicity Human T-cells [M] (EC50): 1.08e-11 M

B14: H1H7208P (monovalent 1-arm) (other)
VH: QVQLVESGGGLVHPGRSLRLSCAASGFKFDDYTMHWVRQAPGKGLEWVSDISWNSGSKGYADSVKGRFTISRDNAKDSLYLQMDSLRAADTAFYYCAKDKSGYGHFYYYAMDVWGQGTTVTVSS
VL: [letters of about 100 residues not shown]
U937 Cytotoxicity Human T-cells [M] (EC50): 4.59e-11 M

B15: H1H7242P (monovalent 1-arm) (other)
VH: EVQLVESGGGLVQPGRSLRLSCAASGFTFDDYTMHWVRQGPGKGLEWVSDIGWNSNSIGYADSVKGRFTISRDNAKNSLYLQMNSLRPEDTALYFCVKDKSGYGKFFIGLDVWGQGTMVTVSS
VL: [letters of about 100 residues not shown]
U937 Cytotoxicity Human T-cells [M] (EC50): 7.5e-12 M

B16: H1H7241P (monovalent 1-arm) (other)
VH: EVQLVESGGGLVQPGRSLRLSCAASGFTFADYTMHWVRQGPGKGLEWVSDIGWNSNTIGYADSVKGRFAISRDNAKNSLYLQMNSLRPEDTALYYCVKDKSGYGKFQYGLDVWGQGTTVTVSS
VL: [letters of about 100 residues not shown]
U937 Cytotoxicity Human T-cells [M] (EC50): 1.23e-11 M

B17: H1H7250P (monovalent 1-arm) (other)
VH: QVQLVESGGGLVQPGRSLRLSCAASGFTFDDYTMHWVRQGPGKGLEWVSDIGWNSNTKGYADSVKGRFTISRDNAKNSLYLQMNSLRPEDTALYFCVKDKSGYGKFFIGLDVWGQGTMVTVSS
VL: [letters of about 100 residues not shown]
U937 Cytotoxicity Human T-cells [M] (EC50): 5.91e-12 M

B18: H1H7251P (monovalent 1-arm) (other)
VH: EVQLVESGGGLVQPGRSLRLSCAASGFTFADYTMHWVRQGPGTGLEWVSDIGWSGGSLGYADSVKGRFTISRDNAKNSLYLEMNNLRPEDTALYYCVKDKSGYGKFQYGLDVWGQGTTVTVSS
VL: [letters of about 100 residues not shown]
U937 Cytotoxicity Human T-cells [M] (EC50): 1.81e-12 M

B19: H1H7254P (monovalent 1-arm) (other)
VH: EVQLVESGGGVVQPGRSLRLSCAASGFKFDGYTMHWVRQGPGKGLEWVSDIGWNSNTIGYADSVKGRFTISRDNAKNSLYLQMNSLRPEDTALYFCVKDKSGYGKFFIGLDVWGQGTMVTVSS
VL: [letters of about 100 residues not shown]
U937 Cytotoxicity Human T-cells [M] (EC50): 4.18e-12 M

B20: H1H7258P (monovalent 1-arm) (other)
VH: QVQLVESGGGLVQPGRSLRLSCAASGFTFDDYTMHWVRQGPGKGLEWVSDIGWNSNTIGYADSVKGRFTISRDNARNSLYLQMNSLRPEDTALYYCVKDKSGYGKFQYGLDVWGQGTTVTVSS
VL: [letters of about 100 residues not shown]
U937 Cytotoxicity Human T-cells [M] (EC50): 1.53e-11 M
